Out of some 340,000 compounds screened, about 12,000 (3.5%) were called active. The inconclusive results got no clear call from the source; some entries with a clear call stand among them for comparison. The call rests on the fitted dose curve; in most records, active means well fitted inhibition curve with a large enough effect; inconclusive means small, poorly fitted or top-dose-only effect, or another doubt; inactive means no such curve, though single readings can be large or run the other way. No potency is given beside an inconclusive call; the fits are too rough.
Assay: qHTS Assay for Inhibitors of Hepatitis C Virus (HCV)
Conditions: Huh7.5.1 HCVcc-Cre (HCVcc is cell-culture hepatitis C virus) infection, luciferase reporter, 44 h; activity change, negative = inhibition: at 41.8 µM (top of the series) unless noted
Method in brief: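 Seed cells (1,000/well) for 4 h; treat with compound and infect with HCVcc-Cre, moi about 0.5. Incubate 44 h, then detect luciferase activity.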
On the % scale 0 is the no-effect control and ±100 the full control effect; potency means the concentration at half of the fitted maximal effect; tags describe the fitted curve by direction and shape.

Row | Compound | Potency | activity change, negative = inhibition
1 | CCOc1ccc(NC(=O)CN(C)S(=O)(=O)c2cccs2)cc1 | inconclusive [inhibitor, full curve] | –
2 | Cc1ccc2c(C)c3ccc4ccccc4c3c[n+]2c1 | active: 12.6 µM | –
3 | CO[C@@]1(NC(=O)Cc2cccs2)C(=O)N2C(C(=O)O)=C(COC(N)=O)CS[C@@H]21 | inconclusive [inhibitor, full curve] | inactive: 2.31% [at 8.37 µM]
4 | COc1ccc2c(C#N)c3ccccn3c2c1 | active: 3.16 µM | –
5 | CNc1nnc(SCC(=O)c2c(N)n(C3CC3)c(=O)[nH]c2=O)s1 | inactive | –
6 | C=CCC[C@@H](Cc1ccc(F)cc1)C(=O)OC[C@H](Cc1c[nH]c2ccccc12)NC(=O)[C@H](CC=C)CC(=O)N(CCO)Cc1ccccc1 | inconclusive [inhibitor, single point] | –
7 | CN(CC(=O)Nc1ccc(Cl)c(C(F)(F)F)c1)CC(=O)NC1CCCCC1 | inconclusive [inhibitor, single point] | –
8 | CNc1nc(-c2c[nH]c3ccccc23)cs1 | inconclusive [inhibitor, partial curve] | –
9 | COc1ccc(OC(C)C(=O)N2CCCc3ccccc32)cc1 (centres undefined) | inconclusive [inhibitor, single point] | –
10 | CC1=C(C#N)C(c2ccc(O)cc2)C(C#N)=C(C)N1 | inactive | –
11 | COC(=O)c1cn(C(=O)c2ccc(OC)cc2)c2ccccc12 | inconclusive [inhibitor, single point] | –
12 | O=C(CN1CCN(S(=O)(=O)c2ccc(F)cc2)CC1)Nc1ccc(Cl)c(C(F)(F)F)c1 | inconclusive [inhibitor, single point] | –
13 | Cc1ccc(CNC(=O)c2c(-c3ccccc3)sc3ccccc23)o1 | inconclusive [inhibitor, full curve] | –
14 | COc1cc(OC)cc(-c2c(-c3cccs3)c3cc(-c4ccc5cc[nH]c5c4)ccc3n2C)c1 | active: 4.47 µM | –
15 | O=C1CCCN2N=C(SCC(=O)Nc3nc4ccccc4s3)SC2=N1 | inconclusive [inhibitor, single point] | –
16 | CCCN(CC(=O)Nc1ccccc1C)C(=O)c1sc2ccccc2c1Cl | inconclusive [inhibitor, partial curve] | –
17 | C=CCc1c(C)nc(SC)nc1Nc1ccccc1 | inconclusive [inhibitor, single point] | –
18 | CCCCCCN1C=CC(=C/C=C(\C#N)C(=O)OCC)C=C1 | inconclusive [inhibitor, single point] | –
